According to PubChem BioAssay AID1745853 (National Center for Advancing Translational Sciences (NCATS), 2022):
Where “and” joins values, the source holds several entries; their conditions need not be identical. Equal values may be shown once. The list shows a part of the results. Further columns of the screen follow, without active or inactive calls.

What was measured:
Assay in all cases: Primary Screen for Target Class Profiling of Small Molecule Inhibitors of Methyltransferases
[1] = target: Glycine N-methyltransferase (Homo sapiens) (UniProt Q14749); conditions: purified enzyme, MTase-Glo SAH luminescence; measured here: GNMT inhibition; at 40 µM; stronger effect = lower value
Outline: (§1)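 Each enzyme was reacted with SAM and its substrate, with compounds tested once at 40 uM; SAH formed was read by MTase-Glo luminescence.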

[2] = target: Guanidinoacetate N-methyltransferase (Homo sapiens) (UniProt Q14353); conditions: purified enzyme, MTase-Glo SAH luminescence; measured here: GAMT inhibition; at 40 µM; stronger effect = lower value
Outline: as §1

[3] = target: Histamine N-methyltransferase (Homo sapiens) (UniProt P50135); conditions: purified enzyme, MTase-Glo SAH luminescence; measured here: HNMT inhibition; at 40 µM; stronger effect = lower value
Outline: as §1

[4] = target: Nicotinamide N-methyltransferase (Homo sapiens) (UniProt P40261); conditions: purified enzyme, MTase-Glo SAH luminescence; measured here: NNMT inhibition; at 40 µM; stronger effect = lower value
Outline: as §1

[5] = target: Phenylethanolamine N-methyltransferase (Homo sapiens) (UniProt P11086); conditions: purified enzyme, MTase-Glo SAH luminescence; measured here: PNMT inhibition; at 40 µM; stronger effect = lower value
Outline: as §1
On the % scale 0 is the no-effect control and ±100 the full control effect.

Compound | activity change, negative = inhibition [1] [%] | activity change, negative = inhibition [2] | activity change, negative = inhibition [3] [%] | activity change, negative = inhibition [4] | activity change, negative = inhibition [5]
Cc1ccccc1CN1C(=O)c2ccc(-c3ccco3)n2CC1(C)C(=O)NC1CCCCC1 (stereo unspecified) | -4.79 | 1.88% | 5.99 | -2.03% | -0.357%
COCc1nnc2n1CCC(NC(=O)C1(c3ccc(OC)cc3)CC1)CC2 (stereo unspecified) | 6.93 | 2.38% | 2.05 | -4.89% | 16.3%
NC[C@@](O)(c1ccc(Cl)cc1)c1ccc(-c2cn[nH]c2)cc1 | -0.748 | 0.126% | -86.3 | -13.2% | -6.86%
Cc1ccc(CN2C(=O)c3cc4sccc4n3CC2(C)C(=O)NC2CCCC(C)C2C)cc1 (stereo unspecified) | -1.59 | 4.86% | 2.95 | 3.32% | -1.3%
O=c1c2ccccc2n2c(-c3ccc(Br)cc3)nnc2n1CCc1ccccc1 | 2.37 | 0.613% | 3.97 | 7.53% | -1.99%
CCOc1ccc(CN2C(=O)c3cc4oc(C)cc4n3CC2(C)C(=O)NC2CCCCC2)cc1 (stereo unspecified) | 3.01 | 1.67% | 6.45 | 5.85% | 2.8%
O=C(Cn1nc2n(Cc3ccccc3)c(=O)c3ccccc3n2c1=O)NCc1ccccc1 | -4.89 | 0% | 0.59 | -2.24% | 1.03%
COc1cc(/C=C/c2ccccc2)c(C(=O)O)c(O)c1CC=C(C)C | -6.99 | 0.376% | 7.91 | -17.2% | -4.44%
Cc1ccccc1Cn1nc2n(CC(C)C)c(=O)c3ccc(C(=O)NC4CCCC4)cc3n2c1=O | 4.51 | 0.56% | 9.66 | 2.6% | 5.95%
CC(C)C1CN(C(=O)CNC(=O)N(C)C)CCCN1Cc1ccc(F)cc1 (stereo unspecified) | -3.49 | -4.05% | 0.217 | -14.2% | 3.61%
CCOC(=O)c1cc2n(n1)CC(C)(C(=O)NCc1ccc(F)cc1)N(Cc1ccccc1F)C2=O (stereo unspecified) | 5.6 | 0% | 10.4 | 9.25% | 6.26%
COc1cc(OC)c2ccc(=O)oc2c1 |  | -0.326% |  | -13.7% | 5.69%
CCOCCCN1C(=O)c2cc3c(OC)ccc(OC)c3n2CC1(C)C(=O)NC1CCCCC1 (stereo unspecified) | -14.5 | 4.84% | 4.51 | 9.62% | -33.1%
CC(C)Cn1c(=O)c2ccc(C(=O)NC3CCCC3)cc2n2c(=O)n(Cc3ccccc3F)nc12 | 4.94 | 3.3% | 7.81 | 3.9% | 5.66%
CCN(CC)C(=O)Nc1ccc(OCC(O)CNC(C)(C)C)c(C(C)=O)c1 (stereo unspecified) | 4.62 | 3.84% | 4.89 | -8.49% | 0.944%
CCC(C)NC(=O)c1ccc2c(=O)n(C(C)C)c3nn(CC(=O)NCc4ccccc4)c(=O)n3c2c1 (stereo unspecified) | 3.34 | 1.31% | 2.47 | 0.298% | 2.18%
CNC(=O)N1CCC(C2CCN(C(=O)Cc3c(F)cccc3Cl)C2)CC1 (stereo unspecified) | -1.54 | -7.3% | 2.6 | -4.81% | 1.51%
Cc1ccc(CNC(=O)c2cc3n(n2)CC(C)(C(=O)NCc2ccccc2)N(C)C3=O)cc1 (stereo unspecified) | 7.07 | 0% | 4.99 | 10.9% | 3.61%
O=C(Cn1nc2n(Cc3ccc(F)cc3)c(=O)c3ccccc3n2c1=O)Nc1cc(F)ccc1F | 1.05 | 2.88% | 1.95 | -0.344% | 0.864%
COc1ccc(NC(=O)C2C[C@H](C)CC[C@H]2C(C)C)cc1 (stereo partly specified) | -1.85 | -5.99% | 10.6 | -12.5% | -0.722%

Compound | activity change, negative = inhibition [1] [%] | activity change, negative = inhibition [2] | activity change, negative = inhibition [3] [%] | activity change, negative = inhibition [4] | activity change, negative = inhibition [5]
CCCn1c(=O)c2ccccc2n2c(=O)n(CC(=O)Nc3ccc4c(c3)OCO4)nc12 | 1.39 | 0% | 7.28 | -4.8% | 2.99%
Cc1cc(NC(=O)NCCN2CCC(O)(Cc3ccccc3)CC2)c2ccccc2n1 | 5.46 | 5.01% | -56.4 | -13.3% | -1.02%
O=C(Nc1cccc(F)c1)N1Cc2[nH]cnc2C[C@H]1c1nc(-c2ccncc2)no1 | -7.77 | -3.11% | -7.21 | -4.73% | -1.44%
O=C(/C=C/c1ccc(O)cc1)OC[C@]12O[C@H]1[C@@H](O)[C@@H]1C=CO[C@@H](O[C@@H]3O[C@H](CO)[C@@H](O)[C@H](O)[C@H]3O)[C@@H]12 | 1.82 | 5.12% | 7.32 | -7.36% | 1.06%
CC1CCCC(NC(=O)C2(C)Cn3c(cc4occc43)C(=O)N2Cc2ccc3c(c2)OCO3)C1C (stereo unspecified) | -11.1 | 2.79% | -10.7 | -14.7% | -8.69%
COc1ccc(CNC(=O)[C@@H]2Cc3nc[nH]c3CN2C(=O)NC(C)C)cc1 | -4.54 | -0.556% | -1.39 | -5.88% | 10.4%
CN1CCC(OC2CCN(C(=O)COc3ccc(Cl)cc3)CC2)CC1 | -3.42 | -3.71% | -15.9 | -6.88% | -2.34%
Cc1cc(C)cc(N2C(=O)c3ccc(-c4ccco4)n3CC2(C)C(=O)NC2CCCC2)c1 (stereo unspecified) | -22.1 | -5.1% | 4.4 | -8.36% | -6.48%
COc1cccc(CC(=O)N2CCCC3(C2)NC(=O)N(Cc2cccc(Cl)c2)C3=O)c1 (stereo unspecified) | -3.6 | -7.71% | -1.24 | -11.9% | 4.43%
COc1ccc(OC)c2c1cc1n2CC(C)(C(=O)NC2CCCCC2)N(Cc2ccco2)C1=O (stereo unspecified) | -12 | 1.19% | -2.99 | -13.7% | -17%
N[C@H]1CONC1=O | 2.19 | 14.8% | 2.83 | -2.12% | 9.24%
CCCc1ccc(OCC(=O)N(Cc2nc(-c3cccnc3)no2)C(C)C)cc1 | -4.29 | 3.59% | 8.02 | -21.5% | -3.72%
O=C(/C=C/c1ccc(O)cc1)N[C@@H](Cc1ccc(O)cc1)C(=O)O | 2.11 | 5.44% | 6.88 | -7.94% | 3.3%
C=C[C@@](C)(O)CC[C@@H]1[C@@]2(C)CCCC(C)(C)[C@@H]2CC[C@@]1(C)O |  | 2.98% and 10.5% |  | -26.6% and -12.1% | -1.12% and 3.38%
CCCn1c(=O)c2ccccc2n2c(SCc3ccccc3Cl)nnc12 | -12.5 | 4.32% | -5.73 | -14.7% | 2.22%
CCC(C)/C=C(C)/C=C/C1=CC2=CC(=O)C(C)(O)C(OC(C)=O)C2CO1 (stereo unspecified) | -3 | -1.44% | 3.73 | -11.4% | -8.96%
C=CC(C)(O)CC/C=C(/C)COC(=O)C(C)C1CCC(C)(C=C)O1 (stereo unspecified) | 2.13 | -7.4% | 2.2 | -19.4% | -1.01%
CCn1c(CC2CCN(Cc3ccccc3C#N)CC2)nn(C)c1=O | -4.58 | -4.53% | -2.32 | -4.79% | 0.089%
Cc1ccc(C)c(Cn2nc3n(CC(C)C)c(=O)c4ccc(C(=O)NC5CCCC5)cc4n3c2=O)c1 | 5.8 | 1.97% | 10.9 | 6.74% | 8.53%
CC1CCC(NC(=O)C2(C)Cn3c(nc4ccccc43)C(=O)N2Cc2cccs2)CC1 (stereo unspecified) | -9.89 | -9.93% | 1.09 | -17.8% | -8.3%

Compound | activity change, negative = inhibition [1] [%] | activity change, negative = inhibition [2] | activity change, negative = inhibition [3] [%] | activity change, negative = inhibition [4] | activity change, negative = inhibition [5]
CC/C=C\[C@H](O)[C@H](O)C1=C(C)C(=O)[C@]2(O1)C(=O)N[C@@](O)(C(=O)c1ccccc1)[C@@H]2O | -0.212 | 3.57% | 3.18 | -9.18% | 3.08%
CC(C)[C@@](O)(c1ccc2cc(OC(F)F)c(OC(F)F)cc2c1)c1cn[nH]n1 | -2.99 | 8.66% | 9.55 | -3.91% | 7.84%
Cc1ccc(Cn2c(=O)c3ccc(C(=O)NC(C)C)cc3n3c(=O)n(CC(N)=O)nc23)cc1 | 2.3 | 4.74% | 8.31 | -0.421% | 4.19%
CN1C[C@@H](NC(=O)NC2CCCCC2)C[C@H]1c1nc(-c2cnccn2)no1 | -3.88 | -5.53% | -1.06 | -6.09% | -6.05%
CCCn1c(=O)c2ccc(C(=O)NC3CCCCC3)cc2n2c(SCC(=O)NC(C)C)nnc12 | 10.2 | 1.78% | 12.4 | 10.4% | 7.36%
CC(C)n1c(=O)c2ccc(C(=O)NC3CCCCC3)cc2n2c(=O)n(CC(=O)NC(C)(C)C)nc12 | -4.24 | 0.249% | -2.25 | -4.3% | -2.93%
CC1(C(=O)NCc2ccccc2)Cn2c(cc3ccccc32)C(=O)N1Cc1cccc(Cl)c1 (stereo unspecified) | -3.39 | -1.34% | -2.92 | -10.6% | -3.6%
COc1ccc(NC(=O)c2nc3sccn3c2-c2cccc(OC)c2)cc1 | -11.3 | -5.87% | -4.15 | -19% | 5.72%
COCC1OC(OC(C)(C)C2CCC3(C)C=C(C4CCC5C4(C)CC(O)C4OC(C(C)(C)O)CCC45C)CCC3O2)C(NC(C)=O)C(O)C1O (stereo unspecified) | -0.533 | 7.22% | -7.59 | -5.61% | -2.06%
CCOc1ccc(NC(=O)N2Cc3c(sc4c3CCCC4)-n3cccc3C2c2ccc(F)cc2)cc1 (stereo unspecified) | 0.404 | 1.09% | 7.16 | 2.13% | 9.01%
Cc1cccc(CN2C(=O)c3ccc(-c4ccccc4)n3CC2(C)C(=O)NC2CCC(C)CC2)c1 (stereo unspecified) | 4.66 | 0% | -3.25 | -1.82% | 1.37%
CC(=O)N[C@H](Cc1c[nH]c2ccccc12)C(=O)OCc1cc(C(F)(F)F)cc(C(F)(F)F)c1 | 1.51 | 9.99% | 11.5 | -5.94% | 9.22%
OC[C@@]1(O)CO[C@@H](OC[C@H]2O[C@@H](Oc3ccccc3)[C@H](O)[C@@H](O)[C@@H]2O)[C@@H]1O | -10.1 | 3.09% | 4.15 | -7.66% | 5.13%
CN1CCN(c2ccc(-c3cccc(CN4CCOCC4)c3)cc2NC(=O)c2c[nH]c(=O)cc2C(F)(F)F)CC1 | 1.75 | 1.65% | 0.835 | -8.4% | 5.16%
CC(C)(C)c1cc(NC(=O)Nc2ccc(-c3cn4c(n3)sc3cc(OCCN5CCOCC5)ccc34)cc2)no1 | 5.2 | 19.3% | 11.6 | 3.28% | 6.99%
CCCn1c(=O)c2ccc(C(=O)NC3CCCC3)cc2n2c(=O)n(Cc3ccc(F)cc3)nc12 | -8.13 | -3.3% | -2.56 | -3.45% | -7.44%
CN1C(=O)c2cc(NC(=O)c3ccccc3F)ccc2N2CCN=C12 | -6.79 | -4.29% | 4.93 | -5.93% | -6.28%
CC1(C(=O)NC2CCCCCC2)Cn2c(ccc2-c2ccco2)C(=O)N1Cc1ccc2c(c1)OCO2 (stereo unspecified) | -4.66 | 3.91% | -2.19 | -9.26% | -2.05%
C[C@]12CC[C@@H]3c4ccc(O)cc4CC[C@H]3[C@@H]1C[C@@H](O[C@@H]1O[C@H](C(=O)O)[C@@H](O)[C@H](O)[C@H]1O)[C@@H]2O | -13.1 | 7.7% | -3.41 | -16.3% | -8.67%
